Whole data set: some 33,000 sequences, median “E-score (-0.5 to 0.5)” near -0.01, cut for the highest 2% near 0.26. The list shows a part of the results.
The sequences below were run against Ste12 (UniProt P13574) (assay: PBM E-score (8-mer binding enrichment) (E-score (-0.5 to 0.5)); higher = stronger / more preferred TF binding; most listed sequences are background and not binding sites). Conditions: protein concentration: 200 nM; construct: GST-DNA-binding domain.
Method in brief: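 Universal all-10-mer Agilent arrays, double-stranded by primer extension on fresh or once-stripped slides, were probed with about 100-200 nM GST-tagged yeast transcription factors made by PURExpress. Fluorescent anti-GST detected bound protein, and masliner normalised the scans. E-scores from the Universal PBM Analysis Suite were given to each ungapped eight-base word pooled with its reverse complement.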
TCACGAAA was tested, and the “PBM E-score” value was 0.211. ACGCTTCG was tested, and the “PBM E-score” value was -0.0299. For CGCCGGCC, the “PBM E-score” value was -0.00587. For AGACTCCT, the “PBM E-score” value was -0.0428. In the case of CACTCCAC, the “PBM E-score” value is reported as 0.108. For AGACTCCC, the “PBM E-score” value was -0.222. In the case of TGCCTCAA, the “PBM E-score” value is reported as 0.0616. In the case of AAGGCTCG, the “PBM E-score” value is reported as -0.214. In the case of CCCTTCGG, the “PBM E-score” value is reported as -0.153. In the case of ACCGCGGC, the “PBM E-score” value is reported as 0.16. In the case of CAACCTGC, the “PBM E-score” value is reported as 0.0657. With ACTACCGC the “PBM E-score” value was -0.102. CACCTCTG was tested, and the “PBM E-score” value was 0.0309. For ACGACCCT, the “PBM E-score” value was -0.169. AGGTGGTA was tested, and the “PBM E-score” value was -0.0982. In the case of CTCTCCAC, the “PBM E-score” value is reported as -0.121. In the case of ACGTTTCT, the “PBM E-score” value is reported as 0.064. For GCGAATGA, the “PBM E-score” value was 0.207. With AATCCAAC the “PBM E-score” value was 0.0243. With CCTATTAC the “PBM E-score” value was -0.0282. With CGCGATCA the “PBM E-score” value was 0.0613. With GCAGTAGA the “PBM E-score” value was -0.161. For AAGCAAAG, the “PBM E-score” value was -0.0466. For AGATGCCC, the “PBM E-score” value was -0.172. CTGTGTCA was tested, and the “PBM E-score” value was 0.0491. For CGTCTTTC, the “PBM E-score” value was -0.0954. With ACTTTCTG the “PBM E-score” value was 0.0746. CGACGAAC was tested, and the “PBM E-score” value was -0.134. In the case of CGCTTATA, the “PBM E-score” value is reported as -0.0823. GCTTTCAA was tested, and the “PBM E-score” value was 0.0208. CGTGCCAC was tested, and the “PBM E-score” value was -0.0815. With CATCCGAG the “PBM E-score” value was -0.00822. GGCACACA was tested, and the “PBM E-score” value was -0.185. With CGTGTTAA the “PBM E-score” value was -0.0275. CGACAGAA was tested, and the “PBM E-score” value was 0.18. For ACAAAGGG, the “PBM E-score” value was 0.0154. CGGCTACG was tested, and the “PBM E-score” value was -0.191. With GAGTCTAA the “PBM E-score” value was -0.033. For AGAGAACG, the “PBM E-score” value was 0.0408. In the case of ATGTTTAA, the “PBM E-score” value is reported as 0.0895. With ATACTGTC the “PBM E-score” value was 0.079. For CTCCTGCA, the “PBM E-score” value was -0.12. In the case of AGGCGCGC, the “PBM E-score” value is reported as 0.0793. AGAAGTCA was tested, and the “PBM E-score” value was 0.0152. For AACATCGA, the “PBM E-score” value was 0.0765. For CACAGCCG, the “PBM E-score” value was -0.0111. In the case of AGTCCTTA, the “PBM E-score” value is reported as -0.135. For CCGTTAAA, the “PBM E-score” value was -0.042. CTCAGAAC was tested, and the “PBM E-score” value was 0.0826. GCCAGGGA was tested, and the “PBM E-score” value was -0.175. For ATCACAAA, the “PBM E-score” value was 0.105. AGCGTGGA was tested, and the “PBM E-score” value was -0.0812. In the case of CGGTTCAA, the “PBM E-score” value is reported as -0.074. GGGGTAAC was tested, and the “PBM E-score” value was -0.11. For GGAGCTCA, the “PBM E-score” value was -0.155. For ATTGCTAG, the “PBM E-score” value was -0.226. In the case of ACAGGCTC, the “PBM E-score” value is reported as -0.168. For GCGTGAAC, the “PBM E-score” value was -0.0471. For AAGGTGGC, the “PBM E-score” value was -0.179. In the case of CTATGAAG, the “PBM E-score” value is reported as 0.0327. For CGTTTGAA, the “PBM E-score” value was 0.265. In the case of CGTACGAG, the “PBM E-score” value is reported as -0.0129. CGATGAGC was tested, and the “PBM E-score” value was -0.0631. With AATAGTAC the “PBM E-score” value was -0.138. ATCGGGCG was tested, and the “PBM E-score” value was -0.0404. In the case of ATGCGCAT, the “PBM E-score” value is reported as 0.0672. With ACAGTACG the “PBM E-score” value was 0.0951. For GATACGAA, the “PBM E-score” value was -0.0992. With GACGCCGC the “PBM E-score” value was 0.0252. With ACCCGGCA the “PBM E-score” value was 0.106. In the case of CCGCAATA, the “PBM E-score” value is reported as 0.211. In the case of CAACAAAG, the “PBM E-score” value is reported as 0.234. GGTGCTTA was tested, and the “PBM E-score” value was -0.161. For ACTCTATC, the “PBM E-score” value was 0.0243. With ATACGTTC the “PBM E-score” value was -0.176. With CAAATCGA the “PBM E-score” value was 0.0344. In the case of AAGGGTTA, the “PBM E-score” value is reported as -0.0972. AAATAATT was tested, and the “PBM E-score” value was 0.294. For ATTTTGCG, the “PBM E-score” value was 0.221. GCGCCCCC was tested, and the “PBM E-score” value was -0.00845. In the case of CCGTCGAG, the “PBM E-score” value is reported as 0.0552. AGCCTCAC was tested, and the “PBM E-score” value was -0.0946. With CCGAATGA the “PBM E-score” value was 0.109. With CGGCGCAC the “PBM E-score” value was 0.0831. AATGAACC was tested, and the “PBM E-score” value was 0.105. With ACCACCGT the “PBM E-score” value was -0.0139. In the case of AATATTCC, the “PBM E-score” value is reported as 0.1. In the case of ACGGGGGG, the “PBM E-score” value is reported as -0.154. AGTAGGGA was tested, and the “PBM E-score” value was -0.0437. CTACGCTC was tested, and the “PBM E-score” value was -0.00605. In the case of ATCTCCTC, the “PBM E-score” value is reported as -0.0662. GCTCTGTA was tested, and the “PBM E-score” value was 0.00073. For AGTAAAAA, the “PBM E-score” value was 0.214. AGTGGGGG was tested, and the “PBM E-score” value was -0.192. With AGAAGTTG the “PBM E-score” value was -0.261. In the case of ATGGAGCC, the “PBM E-score” value is reported as -0.0938. For TAATGTGA, the “PBM E-score” value was 0.0898. In the case of ACGAATCA, the “PBM E-score” value is reported as 0.155. With CGGCCATC the “PBM E-score” value was -0.129. AATATGCT was tested, and the “PBM E-score” value was 0.0289. CAATCCTC was tested, and the “PBM E-score” value was -0.123. AACTGCAT was tested, and the “PBM E-score” value was 0.0751. For TGACGCAA, the “PBM E-score” value was -0.00394. With CCAGCTTA the “PBM E-score” value was -0.091. In the case of AATATAAG, the “PBM E-score” value is reported as 0.198. In the case of GGCAGAGA, the “PBM E-score” value is reported as -0.0424. For CACCGGCG, the “PBM E-score” value was 0.161. In the case of AATACTGT, the “PBM E-score” value is reported as 0.0421. AACCTGAT was tested, and the “PBM E-score” value was 0.065. In the case of CCGTTTGC, the “PBM E-score” value is reported as -0.0882. In the case of GAGGACTC, the “PBM E-score” value is reported as -0.244. For AGATATTG, the “PBM E-score” value was 0.126. In the case of AACTCCTA, the “PBM E-score” value is reported as -0.0367. With AAGCACTG the “PBM E-score” value was 0.137. TATAAGCA was tested, and the “PBM E-score” value was 0.105. In the case of GTACCTGA, the “PBM E-score” value is reported as -0.00708. For CCCCGGGC, the “PBM E-score” value was -0.034. In the case of CTGTGGAC, the “PBM E-score” value is reported as -0.127. With CAAGGCAC the “PBM E-score” value was -0.0553. In the case of GTAGTTCA, the “PBM E-score” value is reported as -0.0732. With ACCCTAGA the “PBM E-score” value was 0.00545. For ACTAAAGA, the “PBM E-score” value was -0.00648. With CAGTTTTA the “PBM E-score” value was 0.104. For GCCAATGA, the “PBM E-score” value was -0.228. With GACGCTGC the “PBM E-score” value was -0.155. For AGTTACCC, the “PBM E-score” value was -0.0983. For CTACCAAC, the “PBM E-score” value was -0.103. In the case of ACTCAACA, the “PBM E-score” value is reported as 0.0976. For GGACCGCA, the “PBM E-score” value was -0.0717. CGTGAGGA was tested, and the “PBM E-score” value was -0.00787. For AGACGCAG, the “PBM E-score” value was -0.0879. For CTTACCGC, the “PBM E-score” value was 0.0479. With ACATCAAA the “PBM E-score” value was 0.196. In the case of CCAAAGGA, the “PBM E-score” value is reported as -0.119. For ACCGTACG, the “PBM E-score” value was -0.124. For GGATCGAC, the “PBM E-score” value was 0.0627. With ACAACCCT the “PBM E-score” value was -0.122. ATTTGAAA was tested, and the “PBM E-score” value was 0.366. ATCCGGTA was tested, and the “PBM E-score” value was -0.119. In the case of AGAATTTC, the “PBM E-score” value is reported as 0.0625. With ATGTCCAG the “PBM E-score” value was -0.155. In the case of AGAGATGC, the “PBM E-score” value is reported as -0.0997. With ATCCGGAT the “PBM E-score” value was 0.0708. In the case of CGACGTAG, the “PBM E-score” value is reported as -0.309. With ATGTACAG the “PBM E-score” value was -0.0771. In the case of CAATTCGA, the “PBM E-score” value is reported as -0.145. GCTTATCC was tested, and the “PBM E-score” value was 0.0792. With ATCAGGAT the “PBM E-score” value was 0.0464. With CTTCAAAG the “PBM E-score” value was -0.00913. In the case of CAGTCCAC, the “PBM E-score” value is reported as -0.0647. For CCAGGTAG, the “PBM E-score” value was -0.133. In the case of GCAATTAC, the “PBM E-score” value is reported as -0.0103. TAATCAAA was tested, and the “PBM E-score” value was 0.193. AAACCTAT was tested, and the “PBM E-score” value was 0.016. With CAATAAGG the “PBM E-score” value was -0.166. For ACTGACCA, the “PBM E-score” value was -0.0856. With ATGGCGGC the “PBM E-score” value was -0.0608. In the case of ATTATAGG, the “PBM E-score” value is reported as 0.12. In the case of AAACCAAC, the “PBM E-score” value is reported as 0.202. For CAAGTGCA, the “PBM E-score” value was -0.228. ATCGTATA was tested, and the “PBM E-score” value was -0.11. AATTACAC was tested, and the “PBM E-score” value was 0.109. GCAGATCA was tested, and the “PBM E-score” value was -0.109. With CCTCTACG the “PBM E-score” value was -0.283. With CTATATGA the “PBM E-score” value was 0.0256. For TCCTGACA, the “PBM E-score” value was 0.172. For ACCAGGAT, the “PBM E-score” value was 0.0826. For CCTCCGGC, the “PBM E-score” value was -0.0362. For ACACCAAT, the “PBM E-score” value was 0.201. In the case of ATAAGTGG, the “PBM E-score” value is reported as 0.0151. With AACGTGCG the “PBM E-score” value was -0.0985. In the case of CTACTTCA, the “PBM E-score” value is reported as -0.15.

— the supplement of paper PMC3334620
